Measured values published in PubChem BioAssay AID360 (National Center for Advancing Translational Sciences (NCATS), 2006).
The campaign covered roughly 48,000 compounds. About 550 (1.1%) were called active. Another 4% or so got no clear call; they are omitted. No stated cut-off is given here; in the data, active means potency below about 15 µM; inconclusive means mostly about 16 µM to 33 µM; inactive means weaker than that. The list shows a part of the results.

molecular target: Lysosomal acid glucosylceramidase (Homo sapiens) (UniProt P04062); experiment: Glucocerebrosidase; conditions: purified enzyme, resorufin glucoside fluorescence (screen aimed at inhibitors), 20 min;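 further: the screen sought inhibitors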
In short: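 Wild-type enzyme at 0.2 nM final in 50mM citric acid/KH2PO4, 10mM sodium taurocholate, 0.01% tween-20, pH 5.9, with resorufin beta-D-glucopyranoside at 30 uM final. Compounds titrated, 20 min at RT, red fluorescence read; AC50 from titration.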
Potency means the concentration at half of the fitted maximal effect.

UniProt P04062, sequence (P04062 whole entry, looked up): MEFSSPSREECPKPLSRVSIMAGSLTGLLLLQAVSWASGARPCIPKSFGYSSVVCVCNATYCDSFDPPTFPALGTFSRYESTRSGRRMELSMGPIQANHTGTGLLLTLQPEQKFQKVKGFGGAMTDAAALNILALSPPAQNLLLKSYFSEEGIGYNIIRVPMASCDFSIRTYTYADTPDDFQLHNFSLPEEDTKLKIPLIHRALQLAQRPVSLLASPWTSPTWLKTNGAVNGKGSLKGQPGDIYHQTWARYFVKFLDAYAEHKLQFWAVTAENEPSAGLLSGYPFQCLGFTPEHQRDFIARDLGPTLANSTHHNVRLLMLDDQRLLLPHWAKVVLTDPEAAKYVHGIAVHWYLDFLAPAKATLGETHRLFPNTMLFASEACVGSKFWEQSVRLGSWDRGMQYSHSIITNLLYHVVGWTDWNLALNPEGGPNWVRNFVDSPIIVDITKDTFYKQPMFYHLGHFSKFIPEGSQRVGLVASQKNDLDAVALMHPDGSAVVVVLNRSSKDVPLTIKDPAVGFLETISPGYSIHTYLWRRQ

Potency, inactive:
CCN(CC)CCn1c(=S)[nH]c2ccc(Cl)cc2c1=O > 76.9 µM
Cc1ccc(S(=O)(=O)NCCSc2nnc(N)s2)cc1 > 76.9 µM
CCOC(=O)C1=C(C)N(C)C(C)=C(C(=O)OCC)C1c1cccnc1 > 76.9 µM
COc1ccccc1CNc1ccc(N2CCOCC2)c(C(=O)O)c1 > 76.9 µM
Cc1ccc(OCCCCn2ccnc2)c(Cl)c1 > 76.9 µM
COc1ccc(CCNC(=O)Cn2c(=O)oc3ccccc32)cc1OC > 76.9 µM
CCC(=O)N(Cc1cc(=O)[nH]c2ccccc12)C1CCCCC1 > 76.9 µM
CC1=C(C(=O)N2CCCCCC2)C2(CCC(C)CC2)OC1=O (stereo not given) > 76.9 µM
C=CCN(C(=O)Nc1ccccc1)C1CC(=O)N(c2ccc(OC)cc2)C1=O (stereo not given) > 76.9 µM
COCCNC(=O)c1ccc(CS(=O)(=O)c2ccc(C)cc2)o1 > 76.9 µM
COc1ccccc1-c1nc(SCC(=O)O)n[nH]1 > 76.9 µM
O=C(O)Cn1c(O)c(C=Nc2ccccc2)sc1=S
Cc1ccc(C(=O)CSc2nnc(Cn3nnc4ccccc43)n2C)cc1 > 76.9 µM
CC(C)c1cc(CN2CCN(CCC#N)CC2)cc(C(C)C)c1O > 76.9 µM
Cn1nnc(NC(=O)CSc2nnnn2-c2ccc(F)cc2)n1 > 76.9 µM
CCOc1ccc2ccccc2c1C(=O)N1CCOCC1 > 76.9 µM
COC(=O)NC1CSCC1OC(=O)c1ccc(Br)cc1 (stereo not given) > 76.9 µM
N#Cc1cc(Cl)c(N2CCOCC2)cc1C#N > 76.9 µM
COCCNC(=O)c1ccc(CS(=O)(=O)c2ccccc2)o1 > 76.9 µM
CC1(C)CC(NC(=O)CCC2CCCC2)CC(C)(C)N1 > 76.9 µM
O=C(c1c(Cl)cccc1Cl)N1CCN(c2ccccn2)CC1 > 76.9 µM
CCOC(=O)c1[nH]c2ccc(OC)cc2c1NC(=O)N1CCOCC1 > 76.9 µM
CCOc1ccccc1NC(=O)NC1(C(=O)N2CCOCC2)CCCCC1 > 76.9 µM
Cc1occc1-c1nnc(SCC(=O)N2CCOCC2)n1CCc1ccccc1 > 76.9 µM
CC(C)C(c1nnnn1Cc1ccccc1)N1CCC(C(N)=O)CC1 (stereo not given) > 76.9 µM
Cc1ccc(C(C)C)cc1S(=O)(=O)NCc1cccnc1
O=C(NCc1ccco1)c1cccc(S(=O)(=O)N2CCCCC2)c1 > 76.9 µM
COc1ccc(C2(NC(C)=O)CCN(C(=O)CCC(=O)O)CC2)cc1 > 76.9 µM
CCCCn1nnnc1NCc1cccc(OC)c1OC > 76.9 µM
Cc1nccn1S(=O)(=O)c1ccc(Br)cc1Br > 76.9 µM
Cc1cccn2c(=O)c3cc(C#N)c(=NC(=O)c4cccnc4)n(CC4CCCO4)c3nc12 (stereo not given) > 76.9 µM
CC(C)C(=O)Nc1cccc(NC(=O)c2cc3ccccc3o2)c1 > 76.9 µM
CCSc1nnc(NC(=O)C2(C)Cc3ccccc3C(=O)O2)s1 (stereo not given) > 76.9 µM
Cc1cc(C)c(C2C(C#N)=C(N)Oc3n[nH]c(C)c32)cc1CN1CCCC1 (stereo not given) > 76.9 µM
COc1ccc(C(=O)CSc2nc3nc(C)cc(C)c3c(=O)[nH]2)cc1OC > 76.9 µM
CCOCc1nnc(NC(=O)c2ccco2)s1 > 76.9 µM
O=C(NCc1ccc2c(c1)OCO2)c1cc(-c2ccccc2)on1 > 76.9 µM
CCOC(=O)C(NC(=O)c1ccc(OC)cc1)(N1CCOCC1)C(F)(F)F (stereo not given) > 76.9 µM
CC1CCN(C(=O)CSc2nc(N)c3c4c(sc3n2)CN(C)CC4)CC1 > 76.9 µM
O=C(Cn1cnc2c(cnn2-c2ccc(Cl)cc2)c1=O)NCCc1ccccc1 > 76.9 µM
Cc1ccc(Cn2ccc(NC(=O)CCSc3nc(-c4ccco4)cc(C(F)(F)F)n3)n2)cc1 > 76.9 µM
COc1ccccc1CNC(=O)COC(=O)c1ccc(S(=O)(=O)N2CCCC2)cc1 > 76.9 µM
O=C(Nc1ccn(Cc2ccc(Cl)cc2)n1)c1ccc2c(c1)OCO2 > 76.9 µM
CCCCCn1c(CN2CCN(Cc3ccccc3)CC2)nc2c1c(=O)[nH]c(=O)n2C > 76.9 µM
COc1ccc(Cc2nnc(SCc3nc4ccccc4c(=O)[nH]3)n2C)cc1 > 76.9 µM
CNCc1cc2ccc(C)cc2[nH]c1=O > 76.9 µM
CC1CCc2c(sc3ncn4c(SCC(=O)NCc5ccco5)nnc4c23)C1 (stereo not given) > 76.9 µM
COc1ccccc1C1CC(=O)NC(C)=C1C(=O)OCC(C)C (stereo not given) > 76.9 µM
CCC(C)NC(=O)c1cn(C)c(=O)c2cc(OC)c(OC)cc12 (stereo not given) > 76.9 µM
CCCC(CCC(=O)NC1CCCCC1)C(=O)O (stereo not given) > 76.9 µM
CCCC(=O)N(c1ccc2oc(=O)sc2c1)S(=O)(=O)c1cccs1 > 76.9 µM
c1ccc(OCCn2cnc3ccccc32)cc1 > 76.9 µM
CCCCOc1ccc(NC(=O)Cn2c(=O)ccc3c(C)cc(C)nc32)cc1 > 76.9 µM
Nc1ccc(-c2n[nH]c(=O)c3ccccc23)cc1N > 76.9 µM
O=C1c2ccccc2C(=O)N1CCn1nc(Cl)nc1Cl > 76.9 µM
COC(=O)c1sc(N2C(=O)c3oc4ccccc4c(=O)c3C2c2cccs2)nc1C (stereo not given) > 76.9 µM
COc1ccc(S(=O)(=O)N2CCC(C(=O)NCc3ccco3)CC2)cc1 > 76.9 µM
Cc1nn(C)cc1CNC(=O)c1cc2n(n1)C(C(F)(F)F)CC(c1cccs1)N2 (stereo not given) > 76.9 µM
Nc1nnc(SCc2ccccc2F)n1-c1ccccc1 > 76.9 µM
COCCNC(=O)c1cc2cc(Br)cc(OC)c2oc1=O > 76.9 µM
